Experimental data from the antibiotic and cytotoxicity screens of Wong et al. (2023).
The other results are listed elsewhere or left out.

What was measured:
HSkMC = human skeletal muscle cells; test: cytotoxicity call (relative viability < 0.9); settings: 10 µM
HepG2 = test: cytotoxicity call (relative viability < 0.9); settings: 10 µM
S. aureus RN4220 = test: growth inhibition call (relative growth <= 0.2); settings: 50 µM

COc1ccc(NC(=O)Nc2ccc3c(c2)C(=O)N([C@H](C)CO)C[C@@H](C)[C@@H](CN(C)Cc2ccc(C(F)(F)F)cc2)OCCCC[C@@H](C)O3)cc1
cytotoxicity call (HSkMC): active
cytotoxicity call (HepG2): active
growth inhibition call (S. aureus RN4220): inactive

O=C(C1=C[C@@H](c2ccsc2)C[C@@H](OCCCCO)O1)N1CCN(Cc2ccc3c(c2)OCO3)CC1
cytotoxicity call (HSkMC): inactive
cytotoxicity call (HepG2): inactive
growth inhibition call (S. aureus RN4220): inactive

C[C@H](CO)N1C[C@H](C)[C@H](CN(C)S(C)(=O)=O)Oc2ccc(NC(=O)Nc3ccccc3)cc2C1=O
cytotoxicity call (HSkMC): inactive
cytotoxicity call (HepG2): inactive
growth inhibition call (S. aureus RN4220): inactive

CC(C)NC(=O)N(C)C[C@@H]1Oc2c(NS(=O)(=O)c3ccc(Cl)cc3)cccc2C(=O)N([C@@H](C)CO)C[C@@H]1C
cytotoxicity call (HSkMC): inactive
cytotoxicity call (HepG2): inactive
growth inhibition call (S. aureus RN4220): inactive

COc1ccc(S(=O)(=O)N(C)C[C@@H]2Oc3c(NC(=O)C4CC4)cccc3C(=O)N([C@@H](C)CO)C[C@H]2C)cc1
cytotoxicity call (HSkMC): inactive
cytotoxicity call (HepG2): inactive
growth inhibition call (S. aureus RN4220): inactive

C[C@H](CO)N1C[C@H](C)[C@@H](CN(C)Cc2ccc(C(F)(F)F)cc2)Oc2ccc(NC(=O)Cn3cnnn3)cc2CC1=O
cytotoxicity call (HSkMC): inactive
cytotoxicity call (HepG2): inactive
growth inhibition call (S. aureus RN4220): inactive

COc1ccc(S(=O)(=O)N(C)C[C@@H]2OCCCC[C@H](C)Oc3ccc(NS(=O)(=O)c4cn(C)cn4)cc3C(=O)N([C@@H](C)CO)C[C@H]2C)cc1
cytotoxicity call (HSkMC): inactive
cytotoxicity call (HepG2): inactive
growth inhibition call (S. aureus RN4220): inactive

COc1ccc(CN(C)C[C@@H]2OCCCC[C@H](C)Oc3ccc(NC(=O)Nc4c(C)noc4C)cc3C(=O)N([C@@H](C)CO)C[C@@H]2C)cc1
cytotoxicity call (HSkMC): inactive
cytotoxicity call (HepG2): inactive
growth inhibition call (S. aureus RN4220): inactive

O=C(CN1CCOCC1)NCC[C@@H]1CC[C@H](NC(=O)c2ccc3c(c2)OCO3)[C@H](CO)O1
cytotoxicity call (HSkMC): inactive
cytotoxicity call (HepG2): inactive
growth inhibition call (S. aureus RN4220): inactive

C[C@H](CO)N1C[C@H](C)[C@@H](CN(C)Cc2ccc(Cl)c(Cl)c2)OCCCC[C@H](C)Oc2ccc(NC(=O)NC3CCCCC3)cc2C1=O
cytotoxicity call (HSkMC): inactive
cytotoxicity call (HepG2): active
growth inhibition call (S. aureus RN4220): inactive

CNC(=O)c1cccc(NC(=S)NC)c1
cytotoxicity call (HSkMC): inactive
cytotoxicity call (HepG2): inactive
growth inhibition call (S. aureus RN4220): inactive

COc1cccc(C#Cc2ccc3c(c2)O[C@@H](CN(C)S(=O)(=O)c2ccccc2F)[C@@H](C)CN([C@H](C)CO)S3(=O)=O)c1
cytotoxicity call (HSkMC): inactive
cytotoxicity call (HepG2): inactive
growth inhibition call (S. aureus RN4220): inactive

C[C@@H]1CN([C@H](C)CO)C(=O)CCCn2nncc2CO[C@@H]1CN(C)Cc1ccc(C(=O)Nc2ccccc2N)cc1
cytotoxicity call (HSkMC): inactive
cytotoxicity call (HepG2): inactive
growth inhibition call (S. aureus RN4220): inactive

CN1CCN(C(=O)C[C@@H]2CC[C@@H]3[C@H](COC[C@H](O)CN3C(=O)C3CCCC3)O2)CC1
cytotoxicity call (HSkMC): inactive
cytotoxicity call (HepG2): inactive
growth inhibition call (S. aureus RN4220): inactive

COC[C@H]1CNN1C(=O)c1cc(C)oc1C
cytotoxicity call (HSkMC): inactive
cytotoxicity call (HepG2): inactive
growth inhibition call (S. aureus RN4220): inactive

COc1cccc(NC(=O)C[C@@H]2CC[C@@H]3[C@H](COc4ccc(NC(=O)C5CCOCC5)cc4C(=O)N3C)O2)c1
cytotoxicity call (HSkMC): inactive
cytotoxicity call (HepG2): inactive
growth inhibition call (S. aureus RN4220): inactive

Cc1noc(C)c1S(=O)(=O)N(C)C[C@H]1Oc2ccc(NC(=O)NC3CCCCC3)cc2CC(=O)N([C@H](C)CO)C[C@H]1C
cytotoxicity call (HSkMC): inactive
cytotoxicity call (HepG2): inactive
growth inhibition call (S. aureus RN4220): inactive

CNC(=O)Cn1cc(Br)cn1
cytotoxicity call (HSkMC): inactive
cytotoxicity call (HepG2): inactive
growth inhibition call (S. aureus RN4220): inactive

COc1ccc(NC(=O)N(C)C[C@H]2OCc3ccccc3-c3c(n(C)c4ccccc34)C(=O)N([C@@H](C)CO)C[C@@H]2C)c(OC)c1
cytotoxicity call (HSkMC): inactive
cytotoxicity call (HepG2): inactive
growth inhibition call (S. aureus RN4220): inactive

C[C@@H]1CN([C@@H](C)CO)C(=O)c2cccc(NC(=O)c3cnccn3)c2O[C@H]1CN(C)Cc1ccc(C(=O)O)cc1
cytotoxicity call (HSkMC): inactive
cytotoxicity call (HepG2): inactive
growth inhibition call (S. aureus RN4220): inactive

Cc1ccc(S(=O)(=O)N(C)C[C@H]2Oc3ccc(NS(=O)(=O)c4ccccc4)cc3CC(=O)N([C@@H](C)CO)C[C@H]2C)cc1
cytotoxicity call (HSkMC): inactive
cytotoxicity call (HepG2): inactive
growth inhibition call (S. aureus RN4220): inactive

COc1ccc(S(=O)(=O)N2C[C@@H](O)COC[C@H]3O[C@H](CC(=O)N[C@H]4CCN(Cc5ccccc5)C4)CC[C@@H]32)cc1
cytotoxicity call (HSkMC): inactive
cytotoxicity call (HepG2): inactive
growth inhibition call (S. aureus RN4220): inactive

O=C(CCCCCNC(=O)OCc1ccc(CO[C@@H]2C[C@H](c3ccc(Br)cc3)C=C(C(=O)N3CCN(Cc4ccccc4)CC3)O2)cc1)NO
cytotoxicity call (HSkMC): inactive
cytotoxicity call (HepG2): inactive
growth inhibition call (S. aureus RN4220): inactive

C[C@@H]1CN([C@H](C)CO)C(=O)Cc2cc(N(C)C)ccc2O[C@@H]1CN(C)S(=O)(=O)c1cn(C)cn1
cytotoxicity call (HSkMC): inactive
cytotoxicity call (HepG2): inactive
growth inhibition call (S. aureus RN4220): inactive

CS(=O)(=O)N1Cc2cncn2C[C@H](COCC(=O)N2CCCC2)C1
cytotoxicity call (HSkMC): inactive
cytotoxicity call (HepG2): inactive
growth inhibition call (S. aureus RN4220): inactive

Cc1ccc(S(=O)(=O)N(C)C[C@H]2Oc3c(NC(=O)Nc4cccc5ccccc45)cccc3C(=O)N([C@H](C)CO)C[C@H]2C)cc1
cytotoxicity call (HSkMC): inactive
cytotoxicity call (HepG2): inactive
growth inhibition call (S. aureus RN4220): inactive
